Test results: PubChem BioAssay AID686970 (National Center for Advancing Translational Sciences (NCATS), 2013)
The whole screen tested about 360,000 compounds, of which about 6,000 (1.7%) were called active. Inconclusive means that the source gave no clear call. Such entries were picked first, then a sample of the others. Calls come from the whole dose curve; as a rule, active = well fitted cell-killing curve with a large enough effect; inconclusive = small, poorly fitted or top-dose-only effect, or effect the other way; inactive = flat fitted curve, though single readings scatter. Potencies of inconclusive entries are left out as doubtful fits.

Assay: qHTS for induction of synthetic lethality in tumor cells producing 2HG: qHTS for the HT-1080-NT fibrosarcoma cell line;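 note: NT is the 2HG producing partner of a matched IDH1 knockdown line; nearly all actives have a fitted effect of over 55% in size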;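 for activity, negative = less viability: 0% = DMSO-treated cells and -100% = media-only wells without cells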
Conditions: HT-1080-NT fibrosarcoma viability, CellTiter-Glo ATP luminescence, 48 h; activity, negative = less viability: at 46.1 µM (top of the series) unless noted
Procedure, shortened: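 Fibrosarcoma NT cells, 750 per well in 5% FBS RPMI, were exposed to compound for 48 hours. Viability: CellTiter-Glo luminescence.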
Potency is the fitted concentration of half-maximal effect; tags give direction and shape of the fitted curve.

Row | SMILES | Potency | activity, negative = less viability
1 | COCCNC(=O)C[C@H]1C[C@H]2c3cc(NS(=O)(=O)c4ccc(F)cc4)ccc3O[C@H]2[C@H](CO)O1 | inactive | 
2 | COc1ccc(-c2nnc(-c3ccccc3O)o2)cc1 | inconclusive [cytotoxic, single point] | 
3 | S=C(NCCN(C1CCCCC1)C1CCCC1)Nc1cccc(Cl)c1 | active: 16.4 µM | 
4 | O=C(O)c1cc(S(=O)(=O)N2CCN(C(c3ccccc3)c3ccccc3)CC2)ccc1Cl | inactive | 
5 | COc1ccc(/C=C2/C(=O)N=C3SCCN32)cc1 | inconclusive [cytotoxic, single point] | 
6 | COc1ccc(N(CC(=O)NCc2ccco2)C(=O)CCC(=O)Nc2ccccn2)cc1 | inactive | 
7 | O=C(NCc1ccccc1)c1cccc(NC(=O)c2ccccc2)c1 |  | inconclusive: -29.6% [cytotoxic]
8 | CSCC[C@@H](C(=O)NCCCCCCCCCCC(=O)N1CCN(C(=O)OC(C)(C)C)CC1)n1cc(CCO)nn1 |  | inconclusive: 11.2%
9 | Cc1nn(C)c(Cl)c1C(=O)NCC(=O)NCc1ccccc1 | inconclusive [rising, single point] | 
10 | COc1ccc(OC)c(/C=C/C(=O)c2ccc3c(c2)OCCO3)c1 | inconclusive [cytotoxic, single point] | 
11 | Cc1nn(-c2ccccc2)c(C)c1C(=O)OCc1ccc(C#N)cc1 | inactive | 
12 | O=C(CCl)N1c2ccccc2Sc2c1ccc1ccccc21 | inconclusive [cytotoxic, single point] | 
13 | CC(C)(C)C(=O)Nc1sc(-c2ccccc2)cc1C(=O)O | inconclusive [cytotoxic, single point] | 
14 | Fc1cccc(CSc2ccc3nnc(-c4ccccn4)n3n2)c1 |  | inconclusive: -30.8% [cytotoxic]
15 | Cc1cc(/C=C2\SC(=O)N(C)C2=O)c(C)n1-c1ccc(S(N)(=O)=O)cc1 | inactive | 
16 | Cc1ccc(OCc2ccc(C#N)cc2)c(C(=O)c2cc(C#N)c(=O)n(C3CC3)c2)c1 | inactive | 
17 | Oc1ccc(-c2csc(-c3cccnc3)n2)cc1O | inconclusive [cytotoxic, single point] | 
18 | CCOC(=O)c1c(NC(=O)c2ccc(Cl)cc2)csc1C | inactive | 
19 | COc1ccc(CN(C)C(=O)c2cccc(Oc3ccccc3)c2)c(OC)c1OC | inactive | 
20 | O=C1/C(=C/Nc2ccc3c(c2)OCO3)CCc2ccccc21 | inconclusive [cytotoxic, single point] | 
21 | O=C(Nc1cc(C(F)(F)F)ccc1Cl)c1ccncc1 | inconclusive [rising, single point] | 
22 | Nc1nc(Cl)nc2c1ncn2C1CCC(CO)O1 (centres undefined) | inactive | 

Row | SMILES | Potency | activity, negative = less viability
23 | CNC(=O)/C=C1\NC(C)(C)Cc2c1ccc1ccccc21 | inactive | 
24 | COc1ccc2c(c1)OC[C@H]1[C@H]2N2C(=O)c3cc(F)ccc3NC(=O)[C@@]2(C)[C@H]1c1ccccc1 | inconclusive [cytotoxic, partial curve] | 
25 | CCCN(CC(=O)Nc1ccccc1C)C(=O)c1ccc(S(=O)(=O)N2CCCCCC2)cc1 | inactive | 
26 | COc1ccc(-c2cccc([C@H]3[C@@H]4C=CCC[C@@]4(C)C(=O)N3Cc3ccccc3)c2)cc1 | inconclusive [cytotoxic, single point] | 
27 | C/C(=N\NC(=O)c1cc(C2CC2)nc2ccccc12)c1ccc(O)cc1O | inconclusive [cytotoxic, full curve] | 
28 | O=C1Nc2ccccc2N(C(=O)c2ccc(-c3ccccc3)cc2)C1c1nc2ccccc2[nH]1 (centres undefined) | inconclusive [cytotoxic, single point] | 
29 | CC(NS(=O)(=O)OCC(Cl)(Cl)Cl)c1ccc(C(C)(C)C)cc1 (centres undefined) | inconclusive [cytotoxic, single point] | 
30 | CC(C)C[C@@H](CN1CCC[C@H]1CN1C(=O)C(=O)NC[C@@H]1Cc1ccccc1)N1C[C@H](Cc2ccccc2)N(CC2CCCCC2)C(=O)C1=O | inconclusive [cytotoxic, single point] | 
31 | N#CC(C#N)=c1ccc2c(c1)NC1(CCCCC1)N=2 | inconclusive [cytotoxic, single point] | 
32 | CC(C)COc1ccc(C(=O)Nc2cc(S(=O)(=O)N3CCOCC3)ccc2N2CCCC2)cc1 | inactive | 
33 | COc1ccc(NS(=O)(=O)c2cccc(C(=O)N/N=C/c3cn(-c4ccccc4)nc3-c3ccccc3)c2)cc1 | inconclusive [rising, single point] | 
34 | Fc1ccc2c(c1)Sc1ccc(Cl)cc1CC2N1CCN(CCC2OCCO2)CC1 (centres undefined) | inconclusive [cytotoxic, single point] | 
35 | Cc1cc2ccccn2c1C(=O)c1ccc(NN)c([N+](=O)[O-])c1 | inconclusive [cytotoxic, partial curve] | 
36 | O=C(N/N=C/c1cccc2ccccc12)c1n[nH]c2c1CCCC2 | active: 1.46 µM | 
37 | COc1ccc(CN2C(=O)CCC2(C)C(=O)NC2CCCCCC2)cc1 (centres undefined) | inactive | 
38 | COCCc1ccc(OC2(C)CCN(Cc3ccc(OC)c4ccccc34)C2)cc1 (centres undefined) | inconclusive [cytotoxic, single point] | 
39 | CN(C)CCCNc1ncnc2oc(-c3ccccc3)c(-c3ccccc3)c12 | inconclusive [cytotoxic, single point] | 
40 | CCCCn1c(SCC(=O)Nc2nnc(CC)s2)nc2c1c(=O)n(C)c(=O)n2C | inconclusive [cytotoxic, full curve] | 
41 | CC(C)OCCCN1C(=O)c2[nH]nc(-c3ccccc3O)c2C1c1cccc(Cl)c1 (centres undefined) | inconclusive [cytotoxic, single point] | 
42 | Cn1cnc([N+](=O)[O-])c1S(=O)(=O)c1cccc(Cl)c1 | inconclusive [cytotoxic, single point] | 
43 | CC(=O)NN1C(=O)/C(=C\c2ccc(Br)o2)SC1=S | inconclusive [cytotoxic, single point] | 
44 | Cc1cc(C(=O)OC(C(=O)Nc2cccc(C(F)(F)F)c2)c2ccccc2)c(C)o1 (centres undefined) | inconclusive [cytotoxic, single point] | 
